The record followed here is publication PMC4336329 (PLoS ONE, 2015).

SMILES strings stand for the structures. The whole screen tested about 310,000 compounds, of which about 14,000 (4.5%) showed an effect of 50% or more. Effects have a minus sign here. This is one part of the list.
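Also: peak tail current of the secondary pulse compared with the same well before compound.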

In this test the target is human ether-à-go-go-related gene (hERG) potassium channel (human, UniProt Q12809). Put plainly: primary screen, population patch clamp on CHO cells stably expressing hERG.
human ether-à-go-go-related gene (hERG) potassium channel, sequence (Q12809 whole entry, looked up): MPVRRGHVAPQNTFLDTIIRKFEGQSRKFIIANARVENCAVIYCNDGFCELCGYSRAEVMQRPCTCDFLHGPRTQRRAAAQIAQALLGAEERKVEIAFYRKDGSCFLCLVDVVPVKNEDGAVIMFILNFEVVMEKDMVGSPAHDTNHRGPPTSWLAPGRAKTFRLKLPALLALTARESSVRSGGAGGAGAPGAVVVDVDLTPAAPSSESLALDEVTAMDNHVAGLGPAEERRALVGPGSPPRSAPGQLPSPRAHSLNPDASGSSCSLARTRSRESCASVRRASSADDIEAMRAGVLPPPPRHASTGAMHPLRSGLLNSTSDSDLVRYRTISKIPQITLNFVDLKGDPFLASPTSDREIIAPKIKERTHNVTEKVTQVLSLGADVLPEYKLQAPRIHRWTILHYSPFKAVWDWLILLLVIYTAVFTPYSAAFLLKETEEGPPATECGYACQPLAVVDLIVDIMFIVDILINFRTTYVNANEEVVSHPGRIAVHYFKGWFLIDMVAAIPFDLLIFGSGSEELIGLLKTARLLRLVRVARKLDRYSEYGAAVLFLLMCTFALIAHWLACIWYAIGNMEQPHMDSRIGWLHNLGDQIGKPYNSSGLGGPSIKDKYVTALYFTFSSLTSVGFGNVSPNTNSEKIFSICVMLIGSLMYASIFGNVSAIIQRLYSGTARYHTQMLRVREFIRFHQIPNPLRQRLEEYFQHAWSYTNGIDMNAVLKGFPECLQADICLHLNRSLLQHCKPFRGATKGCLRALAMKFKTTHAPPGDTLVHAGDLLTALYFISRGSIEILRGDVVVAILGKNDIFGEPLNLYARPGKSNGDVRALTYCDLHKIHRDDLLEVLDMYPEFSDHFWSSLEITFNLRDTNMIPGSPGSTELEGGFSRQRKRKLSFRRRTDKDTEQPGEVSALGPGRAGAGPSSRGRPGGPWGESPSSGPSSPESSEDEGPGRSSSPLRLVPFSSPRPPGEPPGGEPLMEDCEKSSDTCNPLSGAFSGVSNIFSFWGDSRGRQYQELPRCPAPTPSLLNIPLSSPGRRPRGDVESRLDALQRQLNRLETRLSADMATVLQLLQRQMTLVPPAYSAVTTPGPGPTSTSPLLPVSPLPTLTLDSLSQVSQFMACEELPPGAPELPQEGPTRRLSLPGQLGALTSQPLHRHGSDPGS
Regarding `CCOC(=O)C1CCN(C(=O)c2oc3ccc(S(=O)(=O)N4CCCCCC4)cc3c2C)CC1`, the “hERG current change (%, negative = inhibition) at 10uM” value was -28.9%.

As for `CC(=O)O/N=C(\N)c1ccc(-c2csnn2)cc1`, the “hERG current change (%, negative = inhibition) at 10uM” value came to 4.02%.

Regarding `CN(C)C(CNC(=O)/C=C/c1cccc(Cl)c1)c1ccccc1` (stereo not drawn), the “hERG current change (%, negative = inhibition) at 10uM” value is -19.2%.

Take `O=C(CSc1nc(=O)n2cc(Cl)ccc2n1)Nc1ccc2c(c1)OCO2`: the “hERG current change (%, negative = inhibition) at 10uM” value is 4.16%.

In the case of `Cc1cc(-c2ccccc2)[nH]c(=O)c1S(=O)(=O)c1ccc(Cl)cc1`, the “hERG current change (%, negative = inhibition) at 10uM” value is recorded as 14.9%.

As for `Cc1cc(N2CCN(c3ccccc3)CC2)n2ncnc2n1`, the “hERG current change (%, negative = inhibition) at 10uM” value is reported as -31.2%.

`Cc1ccccc1C(=O)N1CC(=O)Nc2ccc(F)cc2C1c1ccccc1` (stereo not drawn): the “hERG current change (%, negative = inhibition) at 10uM” value was -15.2%.

Regarding `Cc1cccc(NC(=O)CS(=O)(=O)c2c[nH]c3ccccc23)c1C`, the “hERG current change (%, negative = inhibition) at 10uM” value was found to be 4.35%.

On to `C=CCN1C(=O)C(CC(=O)Nc2ccccc2)SC1=Nc1ccc(S(N)(=O)=O)cc1` (stereo not drawn), for which the “hERG current change (%, negative = inhibition) at 10uM” value came out at 12%.

Consider `CSc1nc2ccc(NC(=O)C3CC(=O)N(Cc4ccccc4)C3)cc2s1` (stereo not drawn), for which the “hERG current change (%, negative = inhibition) at 10uM” value was -21%.

For `O=C(c1cccnc1Nc1ccccc1F)N1CCOCC1`, the “hERG current change (%, negative = inhibition) at 10uM” value is 11.7%.

Take `O=S(=O)(Nc1ncccn1)c1ccc(NC(=S)N2CCN(c3cccc(C(F)(F)F)c3)CC2)cc1`: the “hERG current change (%, negative = inhibition) at 10uM” value was determined as 9.06%.

Regarding `Cc1ccc2oc(-c3cccc(NC(=S)NC(=O)/C=C/c4ccco4)c3)nc2c1`, the “hERG current change (%, negative = inhibition) at 10uM” value amounted to 2.81%.

Regarding `CC(C)Cn1c(N)c(C(=O)COC(=O)[C@H](C)NC(=O)c2ccccc2Cl)c(=O)n(C)c1=O`, the “hERG current change (%, negative = inhibition) at 10uM” value was -53.1%.

As to `O=C(c1ccco1)N1CCN(c2ccc(Cl)c(Cl)c2)CC1`, the “hERG current change (%, negative = inhibition) at 10uM” value is -29.7%.

`COc1cc(/C=N/NC(=O)c2cc(-c3cccn3C)n[nH]2)cc(OC)c1OC`: the “hERG current change (%, negative = inhibition) at 10uM” value is reported as -22.8%.

Turning to `c1ccc(Cn2c(CN3CCCC3)nc3ccccc32)cc1`, the “hERG current change (%, negative = inhibition) at 10uM” value is given as -64.6%.

Take `O=C(COc1coc(CN2CCc3ccccc32)cc1=O)Nc1ccccc1`: the “hERG current change (%, negative = inhibition) at 10uM” value is given as -24.7%.

As to `O=C(NCCCn1ccnc1)c1cc(-c2ccccc2)on1`, the “hERG current change (%, negative = inhibition) at 10uM” value is -16.3%.

Take `CCCCN(C)C(=O)C1CCCN(S(=O)(=O)c2ccc3c(c2)oc(=O)n3C)C1` (stereo not drawn): the “hERG current change (%, negative = inhibition) at 10uM” value is listed as -15.7%.

For `O=C(c1coc2ccc(O)cc12)C1CC1`, the “hERG current change (%, negative = inhibition) at 10uM” value turned out to be 12.2%.

Turning to `Cc1cccc(/C=C2\CCC(=C3SCCCS3)C2=O)c1`, the “hERG current change (%, negative = inhibition) at 10uM” value stood at 5.8%.

On to `Cc1ccc(S(=O)(=O)N2CCOCC2)cc1NC(=O)CN1CCN(c2ccc(O)cc2)CC1`, for which the “hERG current change (%, negative = inhibition) at 10uM” value is recorded as -7.73%.

`CCCSc1nnc(CSc2nc(C)cc(C)n2)n1C`: the “hERG current change (%, negative = inhibition) at 10uM” value is -6.94%.

Turning to `COc1cc2c(cc1OC)C1(Nc3c-2c(Cc2ccccc2)nn3-c2ccccc2)C(=O)Nc2ccccc21` (stereo not drawn), the “hERG current change (%, negative = inhibition) at 10uM” value is on record as 10.9%.

Regarding `CC(C)(C)C(=O)O/N=C1/C(=O)N(c2ccccc2)c2ccccc21`, the “hERG current change (%, negative = inhibition) at 10uM” value was 29.5%.

Consider `Cc1ccccc1-n1cc(CNC(=O)C2CCC(=O)N(C3CC3)C2)cn1` (stereo not drawn), for which the “hERG current change (%, negative = inhibition) at 10uM” value was 20.1%.

Regarding `COc1ccc(-c2csc(NC(=O)CC(C)C)n2)cc1`, the “hERG current change (%, negative = inhibition) at 10uM” value was -2.85%.

Take `Cc1cc(NC(=O)C2C3C=CC(C3)C2C(=O)O)no1` (stereo not drawn): the “hERG current change (%, negative = inhibition) at 10uM” value amounted to 13.3%.

On to `O=C1NCCc2c1[nH]c1ccc([N+](=O)[O-])cc21`, for which the “hERG current change (%, negative = inhibition) at 10uM” value turned out to be 4.49%.

With `CC(NC(=O)/C(C#N)=C/c1ccc([N+](=O)[O-])o1)c1ccccc1` (stereo not drawn), the “hERG current change (%, negative = inhibition) at 10uM” value is -4.19%.

On to `O=C(NCc1ccc2c(c1)OCO2)C(=O)NCC1OCCN1S(=O)(=O)c1ccc(Br)cc1` (stereo not drawn), for which the “hERG current change (%, negative = inhibition) at 10uM” value was -17.4%.

Consider `COc1cc(NC(=O)CSc2nnnn2Cc2ccc3c(c2)OCO3)cc(OC)c1`, for which the “hERG current change (%, negative = inhibition) at 10uM” value is 6.19%.

As for `CC(=O)NCCC1CCCCN1Cc1nc(Cc2cccc(C(F)(F)F)c2)no1` (stereo not drawn), the “hERG current change (%, negative = inhibition) at 10uM” value came out at 19.1%.

With `CCOC(=O)c1c(NC(=O)CSc2nnc(-c3ccco3)o2)sc(C(C)=O)c1C`, the “hERG current change (%, negative = inhibition) at 10uM” value is given as -1.1%.

With `O=C(COc1cccc2ccccc12)N/N=C/c1ccncc1`, the “hERG current change (%, negative = inhibition) at 10uM” value is recorded as -8.71%.

In the case of `O=C(Nc1ccccc1C(=O)N/N=C/c1ccco1)c1ccc(F)cc1`, the “hERG current change (%, negative = inhibition) at 10uM” value is given as -37.7%.

Regarding `COc1ccccc1N1CCN(C2CCCN(C(=O)Cn3cccn3)C2)CC1` (stereo not drawn), the “hERG current change (%, negative = inhibition) at 10uM” value is 4.39%.

Regarding `CC(CN1C(C)CCCC1C)OC(=O)c1cccc(Br)c1.Cl` (stereo not drawn), the “hERG current change (%, negative = inhibition) at 10uM” value is on record as -36.2%.

For the compound `Cc1ccc(CCN2CC(C(=O)NCCCN3CCCCC3)CC2=O)cc1` (stereo not drawn), the “hERG current change (%, negative = inhibition) at 10uM” value is -4.86%.

With `CCC(CO)NCc1ccc(OC2CCCC2)cc1.Cl` (stereo not drawn), the “hERG current change (%, negative = inhibition) at 10uM” value is -8.07%.

For `COc1nc(-c2ccccc2)cc(-c2ccc(OC)c(OC)c2)n1`, the “hERG current change (%, negative = inhibition) at 10uM” value is reported as -3.56%.
